The supplement of paper PMC12355420
Counter-ions that a name gives are not always drawn. Some of the results follow. No stated cut-off is given here; in the data, active = 0.5 or less and inactive = the rest. Repeats are few or missing, and single values can be far off.

Key:
Conditions in all cases: 50 µM; 24 h
[1] = test system: HeLa VPS33A reporter cells; assay: relative cell viability (CellMask signal) vs DMSO (fraction of DMSO); higher = less cytotoxic;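 further: primary screen of an FDA-approved drug library in HeLa reporter cells in 96-well format, CellMask signal normalized to DMSO-treated wells set as 1, under 0.5 deemed highly cytotoxic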
[2] = test system: HeLa VPS33A R498W KI + HA-SDC1-FLAG; assay: relative GAG core protein HA-SDC1 amount per cell number vs DMSO (fraction of DMSO); higher = more SDC1 (GAG core protein);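 further: HA-SDC1 level read out by In-Cell Western staining with an anti-HA antibody against the N-terminal tag, screening FDA-approved library drugs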
[3] = test system: HeLa VPS33A KO + NLuc-VPS33A R498W; assay: relative mutant VPS33A R498W amount (NanoLuc luminescence) vs DMSO (fraction of DMSO); HeLa model of a glycosaminoglycan (GAG) storage disease; KI is knock-in and KO knock-out; SDC1 is syndecan 1; higher = higher mutant VPS33A level;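 further: screen of an FDA-approved drug library, NanoLuc luminescence read after lysing the treated cells, taken as a measure of mutant VPS33A protein stability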

Compound	relative cell viability [1]	relative GAG core protein HA-SDC1 amount per cell number [2]	relative mutant VPS33A R498W amount [3]
CN1C(C(=O)Nc2ccccn2)=C(O)c2ccccc2S1(=O)=O [Piroxicam]	1.13	inactive: 1.11	0.952
NC(=O)c1cnccn1 [Pyrazinamide]	0.978	inactive: 0.916	1.67
CNC(=O)c1ccccc1Sc1ccc2c(/C=C/c3ccccn3)n[nH]c2c1	1.32	inactive: 1.48	1.28
OC[C@@]1(O)OC[C@@H](O)[C@@H](O)[C@@H]1O [Fructose]	0.914	inactive: 1.01	0.971
Cc1c(C(=O)Nc2ccc(N3C[C@@H](C)O[C@@H](C)C3)nc2)cccc1-c1ccc(OC(F)(F)F)cc1 [LDE225 (NVP-LDE225,Erismodegib)]	1.02	inactive: 0.755	0.991
OCCN(CCO)c1nc(N2CCCCC2)c2nc(N(CCO)CCO)nc(N3CCCCC3)c2n1 [Dipyridamole]	1.06	inactive: 1.07	0.982
Cc1ccc2c(c1)c1c(n2CCc2ccc(C)nc2)CCN(C)C1 [Latrepirdine]	1.03	active: 0.263	1.02
CCc1c2c(nc3ccc(OC(=O)N4CCC(N5CCCCC5)CC4)cc13)-c1cc3c(c(=O)n1C2)COC(=O)[C@]3(O)CC [Irinotecan]	0.965	inactive: 0.752	0.731
CC(N)C12CC3CC(CC(C3)C1)C2 (stereo not given) [Rimantadine]	0.946	inactive: 0.776	0.917
C[N+](C)(C)CC(O)CC(=O)[O-] (racemic) [DL-Carnitine HCl]	1.29	inactive: 0.629	0.983
Cc1ccccc1C(OCCN(C)C)c1ccccc1 (stereo not given) [Orphenadrine Citrate]	1.01	inactive: 0.569	0.65
C[C@H]1CNCCCN1S(=O)(=O)c1cccc2cncc(F)c12	1.12	inactive: 0.808	0.493
O=C(O)c1ccccc1Nc1cccc(C(F)(F)F)c1 [Flufenamic acid]	0.82	inactive: 1.1	1.03
COCCc1ccc(OCC(O)CNC(C)C)cc1 (stereo not given) [Metoprolol Succinate]	0.989	inactive: 1.08	0.922
COc1cc2nc(N(C)CCCNC(=O)C3CCCO3)nc(N)c2cc1OC (stereo not given) [Alfuzosin HCl]	0.972	inactive: 1.29	1.63
CC[C@]1(O)C[C@H]2CN(CCc3c([nH]c4ccccc34)[C@@](C(=O)OC)(c3cc4c(cc3OC)N(C=O)[C@H]3[C@@](O)(C(=O)OC)[C@H](OC(C)=O)[C@]5(CC)C=CCN6CC[C@]43[C@@H]65)C2)C1 [Vincristine]	0.907	active: 0.412	0.437
Clc1ccc2nsnc2c1NC1=NCCN1 [Tizanidine]	1.36	inactive: 0.855	0.582
C[C@@H](CN1CC(=O)NC(=O)C1)N1CC(=O)NC(=O)C1 [Dexrazoxane HCl (ICRF-187, ADR-529)]	1.26	inactive: 0.948	0.743
CCc1c2c(nc3ccc(OC(=O)N4CCC(N5CCCCC5)CC4)cc13)-c1cc3c(c(=O)n1C2)COC(=O)[C@]3(O)CC [Irinotecan HCl Trihydrate]	1.06	inactive: 0.636	0.739
COc1ccc2[nH]c([S@@+]([O-])Cc3ncc(C)c(OC)c3C)nc2c1 [Esomeprazole Magnesium]	0.988	inactive: 0.727	0.856
O=C(O)CC(O)(CC(=O)O)C(=O)O [Citric acid]	1.13	inactive: 1.01	1.09
CCCCC(F)(F)[C@@]1(O)CC[C@H]2[C@@H](CC(=O)[C@@H]2CCCCCCC(=O)O)O1 [Lubiprostone]	1.03	inactive: 0.877	1.39
O=C(O)c1ccncc1 [Isonicotinic acid]	1.09	inactive: 0.781	1.12
O=C([O-])c1ccccc1.[Na+] [Sodium benzoate]	0.987	inactive: 1.02	0.998
NC(=O)NC1NC(=O)NC1=O (stereo not given) [Allantoin]	0.969	inactive: 0.999	0.978
O=C1CC2(CCCC2)CC(=O)N1CCCCN1CCN(c2ncccn2)CC1 [Buspirone HCl]	1.05	inactive: 0.999	0.986
CNC[C@H](O)c1ccc(O)c(O)c1 [Epinephrine Bitartrate]	1.22	inactive: 1.14	1.54
C[C@@H](O)[C@H]1C(=O)N2C(C(=O)O)=C(S[C@@H]3CN[C@H](C(=O)N(C)C)C3)[C@H](C)[C@H]12 [Meropenem trihydrate]	1.42	inactive: 1.35	0.795
CCCC(=O)OCOC(=O)C1=C(C)NC(C)=C(C(=O)OC)C1c1cccc(Cl)c1Cl (stereo not given) [Clevidipine Butyrate]	1.19	inactive: 1.07	0.98
CN(C)CCC(c1ccc(Br)cc1)c1ccccn1 (stereo not given) [Brompheniramine hydrogen maleate]	1.12	inactive: 1.18	1.05
